Results on 46 molecules are retold here after PubChem BioAssay AID493208 (National Center for Advancing Translational Sciences (NCATS), 2011).

SMILES strings stand for the structures. In all, about 44,000 compounds went through this assay and about 340 (0.77%) were called active. Another 5% or so got no clear call; they are omitted. Calls follow the shape of the dose curve; as a rule, active = well fitted inhibition curve with a large enough effect; inconclusive = small, poorly fitted or top-dose-only effect; inactive = flat fitted curve, though single readings scatter. This is one part of the list.
Potency is read from the fitted curve at half-maximal effect.

This test is described as follows: Acumen qHTS Assay for Inhibitors of the mTORC1 Signaling Pathway in MEF (Tsc2-/-, p53-/-) Cells: Sytravon. Also: nearly all actives have a fitted effect of over 50% in size.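 As to activity change, negative = inhibition: plate controls were DMSO for no effect and rapamycin for full effect.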 Conditions: phospho-rpS6 immunofluorescence/PI, 24 h; series mostly up to 38.3 µM; activity change, negative = inhibition: at the top concentration. In outline:
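Readout is phospho-S6 Alexa 488 signal normalized to PI per well, reported as % active cells with thresholds set from rapamycin (7.5 nM) and DMSO controls. Cells: Tsc2-/-, p53-/- MEFs, 24 hrs compound at 37 C; PI cell number serves as viability.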
In general terms: Quantitative high-throughput screening tests each substance at several concentrations.
As for `COC(=O)c1ccc(CSc2nc3c([nH]c4ccccc43)c(=O)n2-c2ccc(OC)cc2)o1`, the “activity change, negative = inhibition” value was inactive: -5.61%.
Same read-out and setting: then `COc1cccc(CNC(=O)c2nn(-c3ccc(C)cc3)c(=O)c3c2c2ccccc2n3C)c1`, with inactive: 4.14%.
Same read-out and setting: then `COc1ccc(CNC(=O)c2c3c(nc4ccccc24)C(=O)N(C2CCCCC2)C3)cc1`, with inactive: -11.2%.
As for `CCOC(=O)c1oc2ccc(S(=O)(=O)n3nc(-c4ccc(Br)cc4)cc3N)cc2c1C`, the “activity change, negative = inhibition” value is inactive: 0.919%.
On the same count and under the same terms, to `O=C(Cc1ccccc1)NCCc1csc2nc(-c3ccc(Cl)cc3)nn12` belongs inactive: 6.05%; to `COc1ccccc1CNS(=O)(=O)c1ccc2c(c1)NC(=O)CC(=O)N2`, inactive: 3%; to `Cc1ccc(-n2nc(C)c3c(C(=O)NCc4ccccc4)cc(C4CC4)nc32)cc1`, inactive: -2.18%.
The same measure, in the same setting: then `COc1ccccc1Nc1nn2c(=O)c3ccc(C(=O)N4CCCC(C)C4)cc3nc2s1` (stereo unspecified), with inactive: 9.77%.
As to `Cc1ccc(S(=O)(=O)NCc2nc(-c3cccc(C)c3)no2)cc1`, the “activity change, negative = inhibition” value is inactive: -4.97%.
The same measure, in the same setting: then `COc1ccc(C2CC(=O)N(Cc3cccc(F)c3)c3ccccc3S2)cc1` (stereo unspecified), with inactive: -0.564%; and `COCCCNC(=O)c1ccc2c(c1)N(Cc1ccccc1)C(=O)c1ccccc1S2`, with inactive: 7.98%; and `O=C(CSc1nc(=O)n(CCN2CCOCC2)c2c1CCC2)Nc1ccccc1`, with inactive: 2.56%.
Same read-out and setting: to `COc1ccccc1CNC(=O)CCCn1c(=O)c2ccccc2n(CC(=O)Nc2c(C)cc(C)cc2C)c1=O` belongs inactive: 0.897%; to `CCn1cc(C(=O)NCc2ccccc2Cl)c(=O)c2cc(S(=O)(=O)N3CCc4ccccc4C3)ccc21`, inactive: -2.58%; to `CCOC(=O)c1sc(NC(=O)C2c3ccccc3Oc3ccccc32)c(C(=O)OCC)c1C`, inactive: 6.2%.
The same measure, in the same setting: then `COc1ccc(C(=O)Nc2nnc(S(=O)(=O)N(CC(C)C)c3ccc(C)cc3)s2)cc1OC`, with inactive: 6.29%; and `O=C(Nc1cc(C(F)(F)F)ccc1Cl)c1cc(-c2ccc3c(c2)OCCO3)on1`, with inactive: -4.75%.
In the case of `COC(=O)c1cccnc1-n1c(=O)c2cccnc2n(CC(=O)Nc2ccc(C)cc2C)c1=O`, the “activity change, negative = inhibition” value is inactive: -2.63%.
With `Cc1ccc2c(c1)N(C(=O)CCC(=O)NCc1ccccc1Cl)CC(C)O2` (stereo unspecified), the “activity change, negative = inhibition” value was inactive: 0.177%.
As for `O=C(Nc1ccc(S(=O)(=O)Nc2ncccn2)cc1)c1ccccc1Cl`, the “activity change, negative = inhibition” value was inactive: 1.96%.
The same measure, in the same setting: to `COc1ccc(NC(=O)CSc2nnc(NC(=O)Nc3ccccc3)s2)cc1OC` belongs inactive: -2.85%; to `CC(NC(=O)Cn1c(=O)oc2cc(S(=O)(=O)NCc3ccccc3)ccc21)c1ccccc1` (stereo unspecified), inactive: -0.0526%; to `Cc1ccccc1Nc1nc(-c2cccc(Cl)c2)c2c(n1)-c1ccccc1OC2`, inactive: -10.5%.
On the same count and under the same terms, to `CC(=O)c1ccc(NC(=O)COc2ccccc2-c2nc(-c3cccc(C)c3)no2)cc1` belongs inactive: -0.765%; to `CCOCCCNc1ncnc2onc(C)c12`, inactive: -0.465%; to `Cc1ccc(Cl)cc1N1CCN(S(=O)(=O)c2ccc3c(c2)CC(C)N3C(=O)C2CCC2)CC1` (stereo unspecified), inactive: 0.73%.
Same read-out and setting: to `CC(=O)c1ccc(NC(=O)c2sc(-n3nc(C)c(Cc4ccccc4)c3C)nc2C)cc1` belongs inactive: 0.81%.
Take `Cc1cccc(NC(=O)Nc2nnc(N(C)Cc3ccccc3)s2)c1`: the “activity change, negative = inhibition” value was inactive: -2.48%.
Same read-out and setting: then `COc1ccc(-c2nn3c(-c4ccccc4C)nnc3c3ccccc23)cc1`, with inactive: 2.33%; and `CN(C(=O)Cn1cc(S(=O)(=O)Cc2ccccc2Cl)c2ccccc21)c1ccccc1`, with inactive: 1.43%; and `Cn1c(=O)c2c(ncn2CC(=O)Nc2cccc(Cl)c2Cl)n(C)c1=O`, with inactive: 14.6%.
Turning to `Cc1ccccc1C(=O)NC1(C(F)(F)F)C(=O)Nc2c1c(=O)[nH]c(=O)n2-c1ccc(F)cc1` (stereo unspecified), the “activity change, negative = inhibition” value was inactive: -2.71%.
Same read-out and setting: to `CCN(Cc1ccccc1)Cc1c(O)ccc2c(=O)c(-c3ccc(Cl)cc3Cl)coc12` belongs inactive: -2.49%; to `Cc1noc(/C=C/c2cccs2)c1S(=O)(=O)N1CCC(C(=O)NCc2ccccc2Cl)CC1`, inactive: -4.06%.
As for `CCCCNC(=O)CCCn1c(=O)c2ccccc2n(CC(=O)Nc2ccccc2OCC)c1=O`, the “activity change, negative = inhibition” value is inactive: -9.93%.
Consider `CCCc1cnc2c(c1SCC(=O)Nc1ccc(C)c(Cl)c1)c(=O)n(C)c(=O)n2C`, for which the “activity change, negative = inhibition” value is inactive: -17.6%.
The same measure, in the same setting: to `COc1cc(/C=C(\C#N)c2nc3ccccc3[nH]2)ccc1OCc1cccc(C(F)(F)F)c1` belongs inactive: 12.4%.
The same measure, in the same setting: to `CCOc1ccccc1NC(=O)c1ccc(F)c(S(=O)(=O)NCc2ccc3c(c2)OCO3)c1` belongs inactive: 3.07%.
In the case of `CCOc1ccccc1NC(=O)N1CCc2c(sc(C)c2CC)C1c1ccccc1` (stereo unspecified), the “activity change, negative = inhibition” value is inactive: -6.93%.
Turning to `COc1ccc(CNc2ncnc3onc(-c4ccc(F)cc4)c23)cc1`, the “activity change, negative = inhibition” value was inactive: -8.83%.
Take `CCOC(=O)c1c(C)[nH]c(CCC(=O)NCCCN2CCN(c3cc(C)ccc3C)CC2)c1C`: the Potency was active: 13.1 µM.
For the molecule `COc1ccccc1CNC(=O)CN1C(=O)CSc2ccc(S(=O)(=O)N(C)C)cc21`, the “activity change, negative = inhibition” value is inactive: 3.89%.
Still for that read-out and setting: then `O=C(CCNS(=O)(=O)c1ccc2c(c1)CCN2C(=O)C1CC1)N1CCN(c2ccccc2F)CC1`, with inactive: -17.5%; and `CCOc1ccc(S(=O)(=O)N2CCN(c3ccc(Cl)c(Cl)c3)CC2)c2ccccc12`, with inactive: -3.59%; and `CC(=O)OC(COc1ccccc1)Cn1cnc2cc(C)c(C)cc21` (stereo unspecified), with inactive: -15.2%.
Consider `COc1ccc(NC(=O)CC2C(=O)N(c3ccc(C)cc3)C(=O)N2C2CCCCC2)cc1` (stereo unspecified), for which the “activity change, negative = inhibition” value was inactive: -2.2%.
